# Values joined by “and” are separate entries in the source; they are usually repeats but may differ in a detail not shown here. Equal entries are not always repeated.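 Growth conditions: 96-well plates. Treatment: test compound, 48 hours, 5 concentrations. Analysis: linear interpolation between bracketing concentrations; unreached endpoints set to highest concentration. The concentration for 50% growth inhibition is given as GI50. At the TGI there is no net growth.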
# System: NCI-H322M lung
# Assay: inhibition of tumour cell growth, NCI panel, 48 h
SMILES,GI50,TGI
Cc1c(C(=O)CCl)c(=O)n(-c2ccccc2)n1C,9.16 µM,21.9 µM
CCOC(=O)Nn1cnnc1Cc1ccccc1,,> 100 µM
CC(C)SC1SCC2C(=O)N(C)C3(CC3C)C(=O)OCC(NC(=O)c3nc4ccccc4cc3O)C(=O)NC(C)C(=O)N(C)C1C(=O)N(C)C1(CC1C)C(=O)OCC(NC(=O)c1nc3ccccc3cc1O)C(=O)NC(C)C(=O)N2C (stereo not given),,< 0.0001 µM
COc1cccc(N2C(=O)CSC2c2c[nH]c3ccccc23)c1 (stereo not given),,> 100 µM
CN(O)C(=O)c1ccc(OCc2cccc(Cl)c2)cc1,,> 100 µM
CC(SC(=S)N1CCCC1)C(=O)Nc1nnc(-c2ccc(Cl)cc2)o1 (stereo not given),,> 100 µM
Cc1ccc(C)c(-n2c(-c3ccc(Br)cc3)csc2=NC(=O)c2ccccc2F)c1,> 100 µM,> 100 µM
COC(=O)C1Cc2c(n(C)c3ccccc23)C(c2ccccc2)N1 (stereo not given),,> 100 µM
O=C(CSc1nc2ccc([N+](=O)[O-])cc2[nH]1)Nc1cccc(C(F)(F)F)c1,3.11 µM,12 µM
O=C1CC2(CCCc3sccc32)C(=O)N1 (stereo not given),,> 100 µM
O=S(=O)(O)c1cccc2ccc(O)c(N=Nc3ccc(S(=O)(=O)c4ccc(N=Nc5c(O)ccc6cccc(S(=O)(=O)O)c56)cc4)cc3)c12,,> 100 µM
N#Cc1c(Cl)cccc1Oc1ccc(S(=O)(=O)/N=C(\NO)Nc2ccc(Cl)cc2)cc1,,28.9 µM
Clc1ccc(Nc2ccnc(NCCNc3ccnc4cc(Cl)ccc34)n2)cc1,1.44 µM,2.94 µM
O=C(Nc1ncc([N+](=O)[O-])s1)c1cccc([N+](=O)[O-])c1,3.26 µM,32.1 µM
COC(=O)[C@H](C)[C@H]1CC[C@@](C)([C@H]2CC3C(C)(C)[C@H]4CCC(C)=C[C@H]4C[C@@]3(C)O2)OO1 (stereo not given in full),,31.7 µM
CCN(Cc1ccc(F)cc1F)c1ccc(CO)c(Cl)c1,9.9 µM,> 52.4 µM
COc1ccc(/C=C/C(=O)/C=C(/C=C/c2ccc(OC)c(OC)c2)OB(F)F)cc1OC,2.84 µM,44.5 µM
O=NN(CCCl)C(=O)NCc1ccc[n+]([O-])c1,,> 100 µM
c1ccc2c(c1)Sc1ccccc1N2CCCN1c2ccccc2Sc2ccccc21,,> 100 µM
CCOC(=O)c1nc2cc(F)c(F)cc2nc1NCc1cc(OC)c(OC)c(OC)c1,,> 100 µM
O=C1NC(=O)C2=C1CCC2O (stereo not given),,> 100 µM
COc1c(O)cc2oc3cc(O)c(CC=C(C)C)c(O)c3c(=O)c2c1C/C=C(\C)CCC=C(C)C,5.51 µM,10.5 µM
CC(C)C(=O)CC(Sc1ccc(N)cc1)c1ccccc1 (stereo not given),,> 100 µM
Cc1ccc([N+](=O)[O-])cc1S(=O)(=O)Nc1ccc(C2=NOC(c3ccccc3)C2)cc1 (stereo not given),,97.7 µM

SMILES,GI50,TGI
COc1ccc(OC)c2sc(N3C(=O)/C(=C/c4ccc(N(C)C)cc4)N=C3c3ccccc3)nc12,,> 100 µM
COC1C(=[N+]=[N-])C(=O)NC(=O)N1C1OC(COC(c2ccccc2)(c2ccccc2)c2ccccc2)C(O)C1O (stereo not given),,30.3 µM
Nc1ccc(CCN2CCN(c3cccc(C(F)(F)F)c3)CC2)cc1,,> 100 µM
O=C1CCCSCCCC(=O)CCCSCCC1,,> 100 µM
CC1=C(C(=O)Nc2ccc(F)c(Cl)c2)C(c2cccc(O)c2)NC(=S)N1 (stereo not given),18.2 µM,> 50 µM
O=c1[nH]nc(Cc2ccccc2)n1N=C1CCCCC1,,> 100 µM
CC1CC/C(=C\c2ccc(Cl)cc2)C(=O)/C1=C\c1ccc(Cl)cc1 (stereo not given),,> 100 µM
O=C1c2[nH]cc(CN[C@@H]3CCCN3)c2C(=O)c2c1c(O)c1ccccc1c2O,0.654 µM,1.83 µM
O=S(=O)(O)c1ccc(N=Nc2c(O)ccc3ccccc23)cc1,,> 100 µM
COc1cccc2c1C(=O)c1c(O)c3c(c(O)c1C2=O)CC(O)(C(C)=O)CC3OC1CC([N+](C)(C)C)C(O)C(C)O1 (stereo not given),,> 100 µM
O=C(c1c(F)c(F)c(F)c(F)c1F)n1c(=O)[nH]c2ccccc21,,29 µM
O=C(Oc1cccc(Nc2ncnc3ccccc23)c1)c1ccccc1Cl,6.15 µM,38.1 µM
c1ccc2nc3c(nc2c1)sc1nc2ccccc2n13,,> 100 µM
C(=C\c1ccccc1)/Cn1nc(-c2ccccc2)nc1-c1cnccn1,,> 100 µM
COC(=O)C1=C(O)C(C(=O)OC)[C@]2(O)[C@H](C(=O)OC)[C@H]1C[C@@H](c1ccc(Cl)cc1Cl)[C@H]2C(=O)OC (stereo not given in full),,28.2 µM
CC1=C2C(=CC(C)(CO)C2O)C(=O)C(C)(O)C12CC2 (stereo not given),,0.0677 µM
Clc1ccc(N2COOC3(OOC2)C2CC4CC(C2)CC3C4)cc1,> 100 µM,> 100 µM
CC(=O)C(C(=N)C#N)C(=O)Nc1ccccc1 (stereo not given),,> 100 µM
COc1ccc(/C=C/C(=N/NC(=O)N/N=C(/C=C/c2ccc(OC)cc2)C(C)C)C(C)C)cc1,,> 100 µM
CC1=NN(c2cccc(Cl)c2)C(=N/c2nc3ccccc3s2)/C1=C\c1ccccc1O,,97.4 µM
COc1cc2c(cc1C)NC(=O)/C2=C\c1cccnc1,,31.8 µM
O=c1ccc(-c2ccc(-n3ccnc3)cc2)nn1CCO,,> 100 µM
COc1ccc(-c2c(C#N)c(N)n(C3OCC(O)C(O)C3O)c(=S)c2C#N)cc1 (stereo not given),,> 100 µM
COC(=O)c1ccc(-c2nc3cc(F)c(F)cc3nc2C#N)cc1,6.77 µM,14.6 µM

SMILES,GI50,TGI
CCCOP1(=O)C=C(C)C(Cl)=C(C)C1 (stereo not given),,67 µM
O=[N+]([O-])c1ccc2c(c1)OCCOCCOc1ccc([N+](=O)[O-])cc1OCCOCCO2,,> 100 µM
N/C(=N\Nc1cccc(Cl)c1)c1cccnc1,,> 100 µM
CC(C)(C)c1ccc(Oc2ccc(C#N)c(C#N)c2)c(C(C)(C)C)c1,,> 100 µM
CC12CC(=O)OC(Cc3ccccc31)O2 (stereo not given),,> 100 µM
O=C1c2scc(-c3ccc(F)cc3)c2-n2cccc21,,> 100 µM
Cc1c(C(=O)N/N=C/c2ccc(O)cc2)nnn1-c1ccnc2c(C(F)(F)F)cccc12,> 100 µM,> 100 µM
CCOC(=O)NC(OCCN(C)C)(C(F)(F)F)C(F)(F)F,,> 100 µM
COC(=O)C1=C(O)C(C(=O)OC)[C@]2(O)[C@H](C(=O)OC)[C@H]1C[C@@H](c1ccc(O)cc1)[C@H]2C(=O)OC (stereo not given in full),,> 100 µM
Cc1ccc(C2=[N+]([O-])c3ccccc3C2=O)cc1,,> 100 µM
CC1(C)C2CC1C(/C=N\OCC(=O)O)=CC2=O (stereo not given),,> 100 µM
COc1ccc(C[C@H]2NC[C@H](OC(C)=O)[C@H]2OC(C)=O)cc1,,0.639 µM
C=C1C(=O)OC2C1C(OC(=O)/C(C)=C/C)CC(O)(CCl)C1C(OC(C)=O)C=C(C)C21O (stereo not given),,> 64.6 µM
CC(C)(C)[Si](C)(C)OC1[C@@H](O[Si](C)(C)C(C)(C)C)[C@@H](CNC(=O)NC(=O)NC(=O)CI)O[C@H]1n1cnc2c(NC(=O)Nc3ccccc3)ncnc21 (stereo not given in full),12.7 µM,34.8 µM
CCOC(=O)N(C)CCC1CC=CC(=O)C1c1cccc(OC)c1OC (stereo not given),,> 100 µM
CCCCC1=C(C(=O)N2CCOCC2)C2(OCCO2)C1Cl (stereo not given),,> 100 µM
CCOC(=O)CCN1C(=O)c2ccc(NC(=O)C(=O)O)cc2S1(=O)=O,,> 100 µM
C[C@@H](Oc1cc(-c2cnn(C3CCNCC3)c2)cnc1N)c1c(Cl)ccc(F)c1Cl,3.28 µM,> 10 µM
COc1nc(N)nc2c1n(C)c[n+]2C,,> 100 µM
O=C1NC(=O)[C@@H](c2cn3c4c(cccc24)CCC3)[C@@H]1c1c[nH]c2ccccc12,0.491 µM and 0.632 µM,> 10 µM and 34.3 µM
CC(C)OP(=O)(OC(C)C)c1nn(-c2ccc([N+](=O)[O-])cc2)c(=N)s1,,> 100 µM
CC1=CC(=C(c2ccc(N)c(C)c2)c2ccc(N)c(C)c2)C=CC1=N,,> 58.9 µM
COCC1N=C(c2ccc(OC)c(OCc3ccccc3)c2OC)O[C@H]1c1ccccc1 (stereo not given in full),,57.3 µM
O=C(Nc1cccc(NS(=O)(=O)c2ccc(F)cc2)c1)c1ccc(-c2ccccc2)cc1,3.55 µM,> 100 µM

SMILES,GI50,TGI
COC(=O)C(=O)C(C(=O)C(=O)Nc1ccc([N+](=O)[O-])cc1[N+](=O)[O-])c1nc2ccc([N+](=O)[O-])cc2[nH]c1=O (stereo not given),,> 100 µM
Cc1c2ncccc2c(C)c2c1[nH]c1ccc(O)cc12,9.08 µM,11.6 µM
CSC1=C(C)S/C(=C\c2ccc(/C=C3\SC(C)=C(SC)S3)cc2)S1,,> 100 µM
C=CC[P@@]1(=O)O[C@H](c2ccccc2)C(C)N1C(C)C (stereo not given in full),,> 100 µM
CCCCn1c(C)c(C)c2c1NN=C(C#N)S2(=O)=O,,> 100 µM
COc1cc(/C=C2\CC(C)CC3C2=NN(c2ccccc2)C3c2cc(OC)c(OC)c(OC)c2)cc(OC)c1OC (stereo not given),43.7 µM,> 100 µM
CC(C)/C(Cl)=N/OC(NC(=O)Nc1ccc(Cl)c(Cl)c1)(C(F)(F)F)C(F)(F)F,,31.9 µM
O=C(CCl)Nc1ccccc1SCc1cc(Cl)cc2c1OCOC2,14.4 µM,29 µM
CC1/C=C/C=C/CC/C=C/C=C/C=C/C=C/C(OC2OC(C)C(O)C(N)C2O)CC2OC(CC(O)C(O)CCC(O)CC(O)CC(O)CC(=O)OC(C)C(C)C1O)CC(O)C2C(=O)O (stereo not given),26.5 µg/mL,30.8 µM and 50 µg/mL
Nc1nc([O-])c([I+]c2ccccc2)c(=O)[nH]1,,> 100 µM
CN(C)Cc1cc(N=Nc2c(Cl)cccc2Cl)ccc1O,,> 100 µM
COc1ccccc1/[N+]([O-])=C/c1ccccc1OC(=S)S,,> 100 µM
O=C(O)C(Cc1ccccc1-c1ccccc1)C(=O)O,,> 100 µM
CCCCCCCCCCCCOCCCCCCCCC/C=C/c1ccc2c(c1)OCCOCCOCCOCCO2,,> 100 µM
O=C(O)CSCC(=O)c1ccccc1,,> 100 µM
COc1c2c(c(OC)c3c(=O)cc(C/C(=N/NC(=O)C[n+]4ccccc4)C(=O)Nc4cc(C)ccc4C)oc13)OCO2,,> 100 µM
CCOC(=O)c1sc2ncn(Cc3cccc(Cl)c3)c(=O)c2c1C,11.3 µM,27.7 µM
COc1cc(/C=C2\N=C(c3ccccc3)N(c3ccc(S(=O)(=O)Nc4nccs4)cc3)C2=O)ccc1O,,> 100 µM
Brc1nc2c3ccccc3ncn2c1Br,,> 100 µM
COC1CCC2C(=O)CCCC2O1 (stereo not given),,> 100 µM
Cc1cccc2c1CC(C1OC(=O)c3c(C)cccc31)C2=O (stereo not given),,> 100 µM
CC(=O)N1c2ccccc2C2=NN=C(N(C)C)SC21 (stereo not given),,16.3 µM
C=C1C(=O)O[C@H]2[C@H]1CC/C(COC(=O)/C=C/c1cccnc1)=C\CC[C@@]1(C)O[C@@H]21,13.2 µM,26.5 µM
CC1(c2ccccc2)CC12C(=O)NC(=O)NC2=O (stereo not given),,> 100 µM

# Source: PubChem BioAssay (NCI)
